In patent US12729239B2, “Anti-CEACAM5 antibodies and conjugates and uses thereof” (Merck Patent GmbH, priority 2020, dated 2026):

B1: Fab of mAb1: Fab format of antibody mAb1 (antibody)
heavy: EVQLQESGPGLVKPSQTLSLTCTVSDGSVSRGGYYLTWIRQHPGKGLEWIGYIYYSGSTYFNPSLRSRVTMSVDTSKNQFSLKLSSVTAADTAVYYCARGIAVAPFDYWGQGTLVTVSSASTKGPSVFPLAPSSKSTSGGTAALGCLVKDYFPEPVTVSWNSGALTSGVHTFPAVLQSSGLYSLSSVVTVPSSSLGTQTYICNVNHKPSNTKVDKRVEPKSC
light: EIVLTQSPATLSVSPGERATLSCRTSQSVRSNLAWYQQKPGQAPRLLIYAASTRATGIPARFSGSGSGTEFTLTISSLQSEDFAVYYCQQYTNWPFTFGPGTKVDIKRTVAAPSVFIFPPSDEQLKSGTASVVCLLNNFYPREAKVQWKVDNALQSGNSQESVTEQDSKDSTYSLSSTLTLSKADYEKHKVYACEVTHQGLSSPVTKSFNRGEC
B2: mAb1: anti-CEACAM5 IgG1 antibody, two heavy chains SEQ ID NO: 13 and two light chains SEQ ID NO: 14 (antibody)
heavy: EVQLQESGPGLVKPSQTLSLTCTVSDGSVSRGGYYLTWIRQHPGKGLEWIGYIYYSGSTYFNPSLRSRVTMSVDTSKNQFSLKLSSVTAADTAVYYCARGIAVAPFDYWGQGTLVTVSSASTKGPSVFPLAPSSKSTSGGTAALGCLVKDYFPEPVTVSWNSGALTSGVHTFPAVLQSSGLYSLSSVVTVPSSSLGTQTYICNVNHKPSNTKVDKRVEPKSCDKTHTCPPCPAPPVAGPSVFLFPPKPKDTLMISRTPEVTCVVVDVSHEDPEVKFNWYVDGVEVHNAKTKPREEQYNSTYRVVSVLTVLHQDWLNGKEYKCKVSNKALPSSIEKTISKAKGQPREPQVYTLPPSREEMTKNQVSLTCLVKGFYPSDIAVEWESNGQPENNYKTTPPVLDSDGSFFLYSKLTVDKSRWQQGNVFSCSVMHEALHNHYTQKSLSLSPG
light: B1 light
modifications: HC of mAb1; LC of mAb1

Assays:
[1] = biological target: cynomolgus_monkey-CEACAM5; test: Octet Red binding affinity, captured Macaca fascicularis CEACAM5 ECD; conditions: Fab format, KD=kd/ka
Excerpt: • To determine the binding affinity of soluble antibody analyte to captured target protein CEACAM5 (human or cynomolgus monkey Macaca fascicularis). […] Selectivity a) Species and Domains

[2] = tested on: other human CEACAM family members (huCEACAM6, huCEACAM1, huCEACAM3, huCEACAM7, huCEACAM8, huPSG1); test: Selectivity ELISA of Fab, other human CEACAM family members; format: binding; conditions: even when using 1000 nM Fab
Excerpt: (§1) Selectivity determination for Fab of mAb1 to human CEACAM5 and other human CEACAM family members was done in ELISA assay. Proteins were coated on 96-well assay plates: huCEACAM5-His6 (R&D Systems #4128-CM), huCEACAM6-His6 (3934-CM R&D Systems and recombinant protein obtained from Syngene), huCEACAM1-His6 (2244-CM R&D Systems), huCEACAM3-His6 (C449 Novoprotein), huCEACAM7-His6 (C926 Novoprotein), huCEACAM8-His6 (C583 Novoprotein), huPSG1-His6 (CC66 Novoprotein), each protein was coating the plate at 12 nM concentration.

unrelated protein (BSA) = unrelated protein (BSA) (Bos taurus, UniProt P02769); test: Selectivity ELISA of Fab, unrelated protein; format: binding; conditions: all concentrations tested
unrelated protein (BSA), sequence (P02769 25-607): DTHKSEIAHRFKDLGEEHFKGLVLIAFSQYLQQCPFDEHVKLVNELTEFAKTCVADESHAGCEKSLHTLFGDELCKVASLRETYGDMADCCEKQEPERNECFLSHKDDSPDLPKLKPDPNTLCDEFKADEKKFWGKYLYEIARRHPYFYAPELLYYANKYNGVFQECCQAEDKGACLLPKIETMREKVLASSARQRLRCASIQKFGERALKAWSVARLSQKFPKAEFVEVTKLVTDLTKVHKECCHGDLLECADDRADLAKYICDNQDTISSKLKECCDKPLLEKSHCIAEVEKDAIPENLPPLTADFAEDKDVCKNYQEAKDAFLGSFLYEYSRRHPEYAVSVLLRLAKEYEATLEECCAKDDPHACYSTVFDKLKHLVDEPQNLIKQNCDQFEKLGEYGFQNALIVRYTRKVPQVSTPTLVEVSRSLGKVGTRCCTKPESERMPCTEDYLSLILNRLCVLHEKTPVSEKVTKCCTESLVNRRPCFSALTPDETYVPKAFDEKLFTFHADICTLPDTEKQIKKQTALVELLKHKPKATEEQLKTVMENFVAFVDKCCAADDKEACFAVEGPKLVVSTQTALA
Excerpt: as §1

[3] = tested on: recombinant Macaca fascicularis (mf) CEACAM5 ECD; test: Selectivity ELISA (species and domains), mfCEACAM5 ECD; conditions: 1 μg/ml bound protein, read-out: Binding EC50 to mfCEACAM5
Description: (§2) Selectivity determination for mAb1 was done by titrating the antibody from 4 nM to 0.25 pM and applying it on 1 μg/ml bound recombinant human (rh) CEACAM5 ECD or its domains N-A1-B1, A2-B2, A3-B3 or bound recombinant Macaca fascicularis (mf) CEACAM5 ECD, all obtained from Syngene, in an ELISA assay.

[4] = biological target: BSA (bovine serum albumin) (Bos taurus, UniProt P02769); test: Selectivity ELISA (species and domains), BSA negative control; format: binding; conditions: negative control protein
BSA (bovine serum albumin), sequence (P02769 25-607): as above
Description: as §2

Row | Molecule | Kd [1] [nM] | Binding to the other human CEACAM family members [2] | Binding to unrelated protein (BSA) (unrelated protein (BSA)) | EC50 [3] [nM] | Binding to BSA [4]
1 | B1 | 14.1 ± 2.53 | did not bind | did not bind |  | 
2 | B2 |  |  |  | 0.324 | No binding
